The results in this text go back to PMC7467691, “Meiotic chromosome synapsis depends on multivalent SYCE1-SIX6OS1 interactions that are disrupted in cases of human infertility” (Science Advances, 2020).

Assay [1] addresses T1, SIX6OS1 1–22, yeast two-hybrid fusion (human) (UniProt Q8N1H7).
T1 sequence: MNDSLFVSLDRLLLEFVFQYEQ
Nature of the assay: two-hybrid; Matchmaker Gold; pGBKT7 in Y187 mated with pGADT7 in Y2H gold; SD/-Trp/-Leu/-Ade/-His with X-alpha-gal, growth of blue colonies, 5 days at 30°C.

The target in assay [2] is T2, SIX6OS1 1–262 Δ10–21, yeast two-hybrid fusion (human) (UniProt Q8N1H7).
T2 sequence: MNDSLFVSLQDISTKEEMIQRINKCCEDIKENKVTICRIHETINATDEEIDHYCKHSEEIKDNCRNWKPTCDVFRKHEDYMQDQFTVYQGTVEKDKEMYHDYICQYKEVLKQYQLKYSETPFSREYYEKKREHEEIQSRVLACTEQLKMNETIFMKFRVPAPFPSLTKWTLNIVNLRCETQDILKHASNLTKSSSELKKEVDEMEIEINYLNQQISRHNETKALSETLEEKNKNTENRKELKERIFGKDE
The assay is described as above.

Assay [3] concerns the target T3, SIX6OS1 1–262, yeast two-hybrid fusion (human) (UniProt Q8N1H7).
T3 sequence: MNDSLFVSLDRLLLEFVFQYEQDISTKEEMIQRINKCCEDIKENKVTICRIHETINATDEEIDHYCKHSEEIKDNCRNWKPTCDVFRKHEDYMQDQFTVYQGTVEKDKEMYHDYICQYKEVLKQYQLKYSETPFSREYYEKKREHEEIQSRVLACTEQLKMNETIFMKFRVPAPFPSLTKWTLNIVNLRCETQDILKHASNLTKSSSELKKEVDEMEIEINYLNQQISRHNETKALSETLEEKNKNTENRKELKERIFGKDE
The description is as above.

The target in assay [4] is T4, SIX6OS1N (human SIX6OS1 amino acids 1 to 67) (human) (UniProt Q8N1H7).
T4 sequence: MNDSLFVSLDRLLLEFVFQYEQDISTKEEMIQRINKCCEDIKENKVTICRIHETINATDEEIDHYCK
Nature of the assay: co-purification; bacterial coexpression; reciprocal affinity chromatography (Ni-NTA, amylose), ion exchange, tags removed by TEV, further ion exchange and size exclusion chromatography. (Size exclusion chromatography separates by hydrodynamic size, large species first.)

Assay [5] addresses T5, full-length SIX6OS1 Δ10–21, yeast two-hybrid fusion (human) (UniProt Q8N1H7).
T5 sequence: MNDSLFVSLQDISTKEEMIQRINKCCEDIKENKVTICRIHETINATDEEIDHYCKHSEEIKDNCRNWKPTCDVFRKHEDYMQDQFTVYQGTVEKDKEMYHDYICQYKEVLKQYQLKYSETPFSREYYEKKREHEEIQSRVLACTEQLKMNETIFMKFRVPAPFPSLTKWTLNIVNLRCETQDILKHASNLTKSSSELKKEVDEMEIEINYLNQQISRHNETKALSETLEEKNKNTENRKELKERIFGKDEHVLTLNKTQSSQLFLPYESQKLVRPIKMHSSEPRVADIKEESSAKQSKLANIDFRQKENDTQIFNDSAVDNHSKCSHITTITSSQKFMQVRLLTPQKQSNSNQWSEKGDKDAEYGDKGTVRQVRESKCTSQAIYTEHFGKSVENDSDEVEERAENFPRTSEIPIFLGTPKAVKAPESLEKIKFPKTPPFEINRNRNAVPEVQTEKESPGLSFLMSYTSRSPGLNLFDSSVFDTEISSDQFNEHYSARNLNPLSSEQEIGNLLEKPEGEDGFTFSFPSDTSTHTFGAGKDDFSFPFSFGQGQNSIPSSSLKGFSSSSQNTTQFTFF
Nature of the assay: two-hybrid; Matchmaker Gold; pGBKT7 in Y187 mated with pGADT7 in Y2H gold; SD/-Trp/-Leu/-Ade/-His with X-alpha-gal, growth of blue colonies, 5 days at 30°C.

In assay [6] the target is T6, full-length SIX6OS1, yeast two-hybrid fusion (human) (UniProt Q8N1H7).
T6 sequence: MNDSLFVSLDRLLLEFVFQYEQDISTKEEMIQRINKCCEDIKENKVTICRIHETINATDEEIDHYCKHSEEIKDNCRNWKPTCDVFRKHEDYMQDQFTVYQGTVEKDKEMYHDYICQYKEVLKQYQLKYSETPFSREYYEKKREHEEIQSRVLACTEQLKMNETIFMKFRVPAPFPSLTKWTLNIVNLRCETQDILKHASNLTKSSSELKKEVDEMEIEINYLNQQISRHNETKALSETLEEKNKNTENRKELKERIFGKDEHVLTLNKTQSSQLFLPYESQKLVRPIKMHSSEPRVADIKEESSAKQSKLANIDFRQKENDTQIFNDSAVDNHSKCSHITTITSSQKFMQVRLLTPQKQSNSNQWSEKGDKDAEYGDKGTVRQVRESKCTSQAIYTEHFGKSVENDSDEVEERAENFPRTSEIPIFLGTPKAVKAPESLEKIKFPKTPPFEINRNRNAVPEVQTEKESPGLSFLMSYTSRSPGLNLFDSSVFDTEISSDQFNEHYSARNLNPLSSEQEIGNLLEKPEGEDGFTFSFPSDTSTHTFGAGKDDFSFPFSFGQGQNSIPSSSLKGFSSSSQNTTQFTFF
Described as above.

The target of assay [7] is T7, SYCE1 (construct purified with SYCE3, fig. S7, A and B) (human) (UniProt Q8N0S2).
T7 sequence: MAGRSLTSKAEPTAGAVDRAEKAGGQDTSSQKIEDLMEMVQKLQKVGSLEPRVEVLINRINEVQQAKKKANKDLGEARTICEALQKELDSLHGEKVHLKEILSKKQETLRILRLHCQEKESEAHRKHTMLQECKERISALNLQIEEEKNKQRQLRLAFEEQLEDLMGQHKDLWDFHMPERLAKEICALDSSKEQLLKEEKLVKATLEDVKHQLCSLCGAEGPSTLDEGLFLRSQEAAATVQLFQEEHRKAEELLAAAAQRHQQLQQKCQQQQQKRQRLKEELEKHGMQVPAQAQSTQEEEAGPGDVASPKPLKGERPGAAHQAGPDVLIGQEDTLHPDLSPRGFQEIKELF
As to the kind of experiment: co-purification; SYCE1 with SYCE3; dissociation during purification (fig. S7, A and B).

Results are given in words; binding and its absence hold for the method and conditions named. Some results given as binding are weak or reduced against the parent protein; the word gives no strength. For some of these results: Sequences can lack the tags named with a protein.

B1: SYCE1 25–315, yeast two-hybrid fusion (domain or fragment, UniProt Q8N0S2 25-315)
chain: GQDTSSQKIEDLMEMVQKLQKVGSLEPRVEVLINRINEVQQAKKKANKDLGEARTICEALQKELDSLHGEKVHLKEILSKKQETLRILRLHCQEKESEAHRKHTMLQECKERISALNLQIEEEKNKQRQLRLAFEEQLEDLMGQHKDLWDFHMPERLAKEICALDSSKEQLLKEEKLVKATLEDVKHQLCSLCGAEGPSTLDEGLFLRSQEAAATVQLFQEEHRKAEELLAAAAQRHQQLQQKCQQQQQKRQRLKEELEKHGMQVPAQAQSTQEEEAGPGDVASPKPLKGE
For the molecule B1, the figures for the binding result in assay [1], in assay [2] and in assay [3] were “no binding”, “binds” and “binds”, respectively.

B2: full-length SYCE1 (human) (natural protein, UniProt Q8N0S2 1-351, looked up)
chain: T7 sequence
notes: SYCE1, human, full length; canonical 351-amino acid isoform; source: E. coli BL21(DE3), purified; co-expressed with SIX6OS1N for the complex
For the molecule B2, the binding result in assay [4] is on record as “binds”.

B3: full-length SYCE1, yeast two-hybrid fusion (protein, UniProt Q8N0S2 1-351)
chain: T7 sequence
On to B3, for which the binding result in assay [1] is reported as “no binding”; in assay [2], “binds”; in assay [3], “binds”.

B4: SYCE1core (human SYCE1 amino acids 25 to 179) (domain or fragment, UniProt Q8N0S2 25-179, looked up)
chain: GQDTSSQKIEDLMEMVQKLQKVGSLEPRVEVLINRINEVQQAKKKANKDLGEARTICEALQKELDSLHGEKVHLKEILSKKQETLRILRLHCQEKESEAHRKHTMLQECKERISALNLQIEEEKNKQRQLRLAFEEQLEDLMGQHKDLWDFHMPE
notes: Synaptonemal complex central element protein 1 (SYCE1), human, amino acids 25 to 179, numbers relative to the canonical 351-amino acid isoform; also called SYCE1 structural core; SYCE1 25–179; source: co-expressed with SIX6OS1N for the complex
Consider B4, for which the binding entry in assay [4] was “binds”.

B5: SYCE1 177–305, yeast two-hybrid fusion (domain or fragment, UniProt Q8N0S2 177-305)
chain: MPERLAKEICALDSSKEQLLKEEKLVKATLEDVKHQLCSLCGAEGPSTLDEGLFLRSQEAAATVQLFQEEHRKAEELLAAAAQRHQQLQQKCQQQQQKRQRLKEELEKHGMQVPAQAQSTQEEEAGPGD
In the case of B5, the binding entry is recorded as “no binding” in assay [1], “binds” in assay [5] and “binds” in assay [6].

B6: SYCE1POF (amino acids 25 to 240), yeast two-hybrid fusion (domain or fragment, UniProt Q8N0S2 25-240)
chain: GQDTSSQKIEDLMEMVQKLQKVGSLEPRVEVLINRINEVQQAKKKANKDLGEARTICEALQKELDSLHGEKVHLKEILSKKQETLRILRLHCQEKESEAHRKHTMLQECKERISALNLQIEEEKNKQRQLRLAFEEQLEDLMGQHKDLWDFHMPERLAKEICALDSSKEQLLKEEKLVKATLEDVKHQLCSLCGAEGPSTLDEGLFLRSQEAAATV
Take B6: the values for the binding result in assay [1], in assay [2] and in assay [3] were “no binding”, “no binding” and “binds”, respectively.

B7: SYCE3 (construct purified with SYCE1, fig. S7, A and B) (protein, UniProt A1L190 1-88)
chain: MDDADPEERNYDNMLKMLSDLNKDLEKLLEEMEKISVQATWMAYDMVVMRTNPTLAESMRRLEDAFVNCKEEMEKNWQELLHETKQRL
With B7, the binding result in assay [7] is reported as “binds weakly”.

B8: SYCE1POF (human SYCE1 amino acids 1 to 240, truncated product of the POF mutation c.613C>T, p.Gln241*) (domain or fragment, UniProt Q8N0S2 1-240, looked up)
chain: MAGRSLTSKAEPTAGAVDRAEKAGGQDTSSQKIEDLMEMVQKLQKVGSLEPRVEVLINRINEVQQAKKKANKDLGEARTICEALQKELDSLHGEKVHLKEILSKKQETLRILRLHCQEKESEAHRKHTMLQECKERISALNLQIEEEKNKQRQLRLAFEEQLEDLMGQHKDLWDFHMPERLAKEICALDSSKEQLLKEEKLVKATLEDVKHQLCSLCGAEGPSTLDEGLFLRSQEAAATV
notes: SYCE1, human, amino acids 1 to 240, relative to the canonical 351-amino acid isoform; product of the premature stop codon p.Gln241*; The purified material held about equal amounts of the full protein and a degradation product; source: also co-expressed with SIX6OS1N
With B8, the binding result in assay [4] is recorded as “binds”.
